No constants are given. Whether binding was seen depends on the method and setting. Binding seen in cells or lysates may run through a third protein. Some results given as binding are weak or reduced against the parent protein; the word gives no strength. Sequences can lack the tags named with a protein.

The chains behind the UniProt entries cited, without tags or fusion partners. Where a name states a change or a piece, a line headed by the entry shows the natural chain unless it says otherwise. A line that says so, or that is headed by a name, gives the form on record, which may keep a tag or linker.
UniProt P04150: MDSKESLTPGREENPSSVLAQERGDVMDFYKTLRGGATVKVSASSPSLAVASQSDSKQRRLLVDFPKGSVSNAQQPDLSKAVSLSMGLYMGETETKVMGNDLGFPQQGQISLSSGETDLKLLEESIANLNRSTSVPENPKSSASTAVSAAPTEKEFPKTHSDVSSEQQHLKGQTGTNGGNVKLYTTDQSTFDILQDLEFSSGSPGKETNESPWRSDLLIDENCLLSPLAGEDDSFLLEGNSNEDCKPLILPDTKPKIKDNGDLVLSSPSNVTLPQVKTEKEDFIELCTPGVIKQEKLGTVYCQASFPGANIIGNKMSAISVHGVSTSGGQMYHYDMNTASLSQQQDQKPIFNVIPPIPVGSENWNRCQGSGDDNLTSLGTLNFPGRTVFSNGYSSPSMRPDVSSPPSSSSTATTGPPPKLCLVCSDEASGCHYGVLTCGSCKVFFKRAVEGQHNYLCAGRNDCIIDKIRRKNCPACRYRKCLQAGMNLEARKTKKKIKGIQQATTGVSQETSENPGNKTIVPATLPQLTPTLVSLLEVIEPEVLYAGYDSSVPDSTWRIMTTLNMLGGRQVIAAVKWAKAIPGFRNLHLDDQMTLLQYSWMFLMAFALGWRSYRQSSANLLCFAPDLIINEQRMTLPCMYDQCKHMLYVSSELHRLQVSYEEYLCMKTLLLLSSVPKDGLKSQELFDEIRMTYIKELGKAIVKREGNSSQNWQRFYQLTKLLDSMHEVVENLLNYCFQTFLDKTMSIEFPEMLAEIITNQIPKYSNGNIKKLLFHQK
EYFP-26/76 Y30E (P04150, form named): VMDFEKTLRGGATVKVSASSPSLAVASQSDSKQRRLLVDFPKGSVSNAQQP
FLAG-GR ΔNTD (1-25/394-777) (P04150, form named): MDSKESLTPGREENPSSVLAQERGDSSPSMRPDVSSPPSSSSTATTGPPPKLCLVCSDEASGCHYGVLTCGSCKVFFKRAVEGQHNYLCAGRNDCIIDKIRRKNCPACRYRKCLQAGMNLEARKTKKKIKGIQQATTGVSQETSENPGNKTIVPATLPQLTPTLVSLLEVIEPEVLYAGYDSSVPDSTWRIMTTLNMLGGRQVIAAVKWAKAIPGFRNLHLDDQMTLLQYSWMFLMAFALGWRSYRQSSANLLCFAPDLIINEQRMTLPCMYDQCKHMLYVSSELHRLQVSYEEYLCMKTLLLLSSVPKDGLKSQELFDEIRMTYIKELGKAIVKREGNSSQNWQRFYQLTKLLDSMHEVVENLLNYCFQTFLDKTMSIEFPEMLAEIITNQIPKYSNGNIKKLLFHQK

In this test the target is T1, CCRP-V5 (cytoplasmic constitutive active/androstane receptor retention protein, pcDNA3.1-mCCRP-V5) (mouse (mCCRP)) (UniProt Q9QYI3).
T1 sequence: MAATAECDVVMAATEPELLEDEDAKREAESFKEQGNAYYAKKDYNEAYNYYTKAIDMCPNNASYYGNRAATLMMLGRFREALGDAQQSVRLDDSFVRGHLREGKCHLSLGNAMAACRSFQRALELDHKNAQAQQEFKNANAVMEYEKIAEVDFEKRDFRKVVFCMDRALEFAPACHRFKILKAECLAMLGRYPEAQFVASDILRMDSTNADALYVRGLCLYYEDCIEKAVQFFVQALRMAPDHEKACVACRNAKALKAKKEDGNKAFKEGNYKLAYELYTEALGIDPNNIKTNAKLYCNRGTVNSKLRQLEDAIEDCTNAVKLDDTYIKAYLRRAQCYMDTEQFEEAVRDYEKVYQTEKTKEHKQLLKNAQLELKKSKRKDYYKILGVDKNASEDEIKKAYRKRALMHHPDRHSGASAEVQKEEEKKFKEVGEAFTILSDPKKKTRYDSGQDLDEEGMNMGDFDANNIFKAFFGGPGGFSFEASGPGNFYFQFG
Kind of test: co-IP; anti-V5 antibody with Dynabeads protein G precipitates CCRP-V5 from whole lysates of co-transfected COS-1 cells; IP buffer 20 mM Tris-HCl pH 7.5, 150 mM NaCl, 1 mM EDTA, 1% Triton-X; 2 to 4 hours at 4°C; Western blot with anti-FLAG or anti-GFP; for EYFP-26/76 in the absence or presence of co-expressed FLAG-GRΔ26-76. Background: In western blotting, separated proteins are transferred to a membrane and probed.

On to “EYFP-26/76 WT (EYFP-c1-hGRα-26-76) (from UniProt P04150 26-76) (domain or fragment)”, for which the binding result is “binds”.

“EYFP-26/76 Y30E (from UniProt P04150 26-76) (domain or fragment)”: the binding result is on record as “no binding”.

Consider “FLAG-GR LBD (528-777) (from UniProt P04150 528-777) (domain or fragment)”, for which the binding result is “binds”.

As to “FLAG-GR Y30E (from UniProt P04150 1-777)”, the binding entry is “binds”.

Take “FLAG-GR Y30F (from UniProt P04150 1-777)”: the binding result is reported as “binds”.

“FLAG-GR full length (FLAG-6c-CMV-hGRα, 1-777) (from UniProt P04150 1-777)”: the binding result is on record as “binds”.

Take “FLAG-GR ΔLBD (1-527) (from UniProt P04150 1-527) (domain or fragment)”: the binding result is listed as “no binding”.

For “FLAG-GR ΔNTD (1-25/394-777) (from UniProt P04150 1-777) (domain or fragment)”, the binding result is “binds”.

Source of the values: article PMC6348740.
